Assay results taken from the supplement of paper PMC7826260.
Some of the results follow. Viral Rep nickase domains cut single-stranded DNA in vitro for 1 h at 37 °C with 3 µM enzyme; only the middle of the 90-letter strands is printed. A value is the log2 ratio of uncut reads to the pool without enzyme; strong cutting gives strongly negative numbers. There is no active / inactive call. Reads are scaled to the total; where an enzyme cuts many sequences, the uncut ones exceed 0.

tested on: T1, Rep nickase domain of tomato golden mosaic virus; test: uncleaved DNA left, log2 of reads against the no-enzyme library (log2 ratio); higher = less cleavage (more negative = more Rep cleavage of the k-mer); sequences stand for … in CTCGTCCG…ACCGGAGA
T1 sequence (residues 1-124 of Rep, tag left off): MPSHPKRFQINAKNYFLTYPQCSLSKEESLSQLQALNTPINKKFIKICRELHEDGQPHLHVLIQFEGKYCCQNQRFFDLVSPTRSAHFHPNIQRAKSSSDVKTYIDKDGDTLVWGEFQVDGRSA
Description: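 A pool of 90-nt single-stranded DNAs with seven random bases just before the constant AC of the nick site (name = the seven bases) was cut by 3 µM recombinant His6-SUMO-tagged Rep nickase domain (300 nM DNA, 50 mM HEPES pH 8.0, 50 mM NaCl, 1 mM MnCl2, 1 h, 37 °C, three replicates). Uncut DNA was amplified and sequenced.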

Row | Sequence | uncleaved DNA left (log2)
1 | GCTAATC | 0.0653
2 | AGACCGT | 0.138
3 | CACAGTA | -0.019
4 | AACCGCT | -0.00458
5 | CCGAAGG | 0.132
6 | AGCAGTG | 0.11
7 | TTGCCGA | -0.243
8 | TGGAGCT | -0.0396
9 | TCTTCTC | -0.171
10 | GGGGTAA | -0.142
11 | AAACCTC | 0.0543
12 | GTGCTAA | 0.175
13 | CCTTTAT | -0.0999
14 | TGGTCCG | -0.0372
15 | TTCCTTA | -0.143
16 | TTCCTTC | -0.203
17 | TATTTGT | -0.0954
18 | ACTGGAT | 0.0591
19 | CTAGTCC | -0.0378
20 | TCGTATA | 0.0265

Row | Sequence | uncleaved DNA left (log2)
21 | GCTGCCT | -0.0459
22 | CTCCAAT | -0.0764
23 | AATTTTA | -0.0913
24 | ACGGCGA | 0.0915
25 | CGTAGCA | 0.0691
26 | ATTCAAT | 0.0319
27 | AATATGT | 0.0281
28 | TGGTTGT | -0.115
29 | GACGTAC | -0.00225
30 | CGACAAT | -0.112
31 | ATACTTT | -0.166
32 | CCAGGAC | 0.101
33 | AAATAGA | 0.137
34 | ATTGGAT | 0.145
35 | GATACAT | 0.0722
36 | AATGGGG | 0.0174
37 | GCATCTC | -0.03
38 | ACTTATA | 0.0757
39 | AGGTAAT | 0.0247
40 | ATCGACT | 0.0673
